Measured values from PubChem BioAssay AID1240 (Sanford-Burnham Center for Chemical Genomics, 2008).
About 800 (1.6%) of roughly 50,000 compounds showed an effect of 50% or more. This is one part of the list.

These compounds were tested against Bcl-2-like protein 10 (Homo sapiens) (UniProt Q9HD36) (assay: Phenotype converters, Bcl-B/TR3 peptide binding displacement, primary biochemical FP (AID 1240;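 further: 0% = Bcl-B with tracer peptide and DMSO and 100% = tracer peptide lacking Bcl-B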)). Details: GST-Bcl-B / FITC-TR3 peptide fluorescence polarization; stronger effect = higher value; compound at 3.75 mg/L.
Sequence of UniProt Q9HD36 (Q9HD36 whole entry, looked up): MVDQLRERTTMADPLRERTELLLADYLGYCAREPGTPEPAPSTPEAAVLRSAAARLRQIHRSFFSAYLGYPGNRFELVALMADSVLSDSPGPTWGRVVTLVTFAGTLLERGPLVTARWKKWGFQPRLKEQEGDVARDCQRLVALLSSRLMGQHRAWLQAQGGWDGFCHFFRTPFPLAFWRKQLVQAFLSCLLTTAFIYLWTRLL

Structure (SMILES) | displacement [%]
CS(=O)(=O)N(CC(=O)N1CCOCC1)c1cc(Cl)cc(Cl)c1 | 6.9
Cc1ccccc1NC(=O)C1CC(=O)N(c2ccc(Cl)cc2)C1 (stereo not given) | 3.3
c1ccc2sc(SCCCN3CCCCC3)nc2c1 | 2.7
CC(=O)Nc1ccc(S(=O)(=O)NCCSc2ccc(C)cc2)cc1 | -0.6
O=C(O)CCC(=O)N1N=C(c2c(-c3ccccc3)c3cc(Cl)ccc3[nH]c2=O)CC1c1ccc([N+](=O)[O-])cc1 (stereo not given) | 10.3
COc1ccccc1N1CCN(C2CC(=O)N(c3cc(Cl)cc(Cl)c3)C2=O)CC1 (stereo not given) | 12
CCN(CC)C(=O)c1ccccc1Br | 47.2
O=C(NNC(=O)c1cc([N+](=O)[O-])ccc1Cl)c1ccc([N+](=O)[O-])cc1 | -4.8
Cc1ccc2nsnc2c1NC(=O)c1ccc(-c2cc(Cl)ccc2Cl)o1 | -1.5
O=C(Nc1ccc(Cl)cc1)c1ccc(-c2cccc(Cl)c2)o1 | -3.3
COCCCNC(=O)CN(c1cccc(C(F)(F)F)c1)S(C)(=O)=O | 0.1
CCCC(=O)Nc1ccc2nn(-c3ccc(C)c(Cl)c3)nc2c1 | 3.6
CNC(=O)COc1ccc(C23CC4CC(CC(C4)C2)C3)cc1 | 1.4
CC(=O)N1C(Nc2ccccc2)CC(C)N1c1ccccc1 (stereo not given) | 4.3
CCOC(=O)C1=C(O)/C(=C/c2ccc(OC)c(OC)c2)SC1=Nc1ccc(Cl)cc1 | -9.2
CC(NC(=O)c1cccc(F)c1)C1CC1 (stereo not given) | -2.7
Cc1ccc(C(=O)NC2CC(C)(C)NC(C)(C)C2)cc1 | -12.3
CCC(=O)N1CCN(c2cc(N3CCOCC3)c(F)cc2[N+](=O)[O-])CC1 | -4.2
CN(C)c1ccc(-c2ncnn2-c2sc3c(c2C#N)CCCC3)cc1 | 3.1
COC(=O)c1sc(NC(=O)CCCOc2ccc(Cl)cc2Cl)c(C(=O)OC)c1C | -6.1
CCOC(=O)C1=C(C)N=c2s/c(=C\c3ccccc3O)c(=O)n2C1c1cccc(OC)c1 (stereo not given) | -0.9
COc1ccc(C)cc1NC(=O)c1cc(OC)c(OC)c(OC)c1 | -7.2
COc1ccc(OC)c(NC(=S)NC(NC(=O)c2cc(OC)c(OC)c(OC)c2)C(Cl)(Cl)Cl)c1 (stereo not given) | 8
Cc1n[nH]c(C)c1Sc1ccccc1N=Cc1ccccc1O | 0.7
COc1ccccc1N1CCN(/N=C\C=C\c2ccccc2)CC1 | -8.1
COc1ccc(CNc2cccc(SC)c2)c(OC)c1 | 16.4
O=S(=O)(NCCCNS(=O)(=O)c1ccc(Cl)cc1)c1ccc(Cl)cc1 | -1.5
CC(=O)c1ccc(NC(=O)c2c(Cl)cccc2Cl)cc1 | 10.6
O=S(=O)(c1ccc(Cl)c(Cl)c1)N1CCN(c2ccccc2)CC1 | -4.7
CCOc1ccccc1N(CC(=O)Nc1ccc(C)cc1C)S(=O)(=O)c1ccccc1 | -1
